About 18,000 (5.8%) of roughly 310,000 compounds were called active. Inconclusive results, whose numbers are uncertain, are shown with a selection of clear calls. Calls follow the shape of the dose curve; as a rule, active = well fitted inhibition curve with a large enough effect; inconclusive = small, poorly fitted or top-dose-only effect, or another doubt; inactive = no such curve, though single readings can be large or run the other way. Potencies of inconclusive entries are left out as doubtful fits.
Assay: Primary qHTS for delayed death inhibitors of the malarial parasite plastid, 48 hour incubation
Details: P. falciparum luciferase growth in erythrocytes; series mostly up to 28.7 µM
Method in brief: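 First compound was added to culture medium, then infected red cells at 0.1% parasitemia and 2% hematocrit (final). After incubation at 37 C under 5% CO2, luciferase detection reagent was dispensed and light output recorded.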
Potency is read from the fitted curve at half-maximal effect; tags tell the direction and shape of the fitted curve.

SMILES	Potency
O=C(NNc1nc(-c2ccccc2)cs1)c1ccccc1	inconclusive [inhibitor, full curve, poor fit]
CCCCOC(=O)Nc1nnc(-c2ccccc2OC)s1	inconclusive [inhibitor, partial curve, poor fit]
O=C(CN1CCCC1)Nc1ccc(Oc2ccc(NC(=O)CN3CCCC3)cc2)cc1	inconclusive [inhibitor, full curve, poor fit]
CC(=O)c1cc(CC(=O)N2CCc3c([nH]c4ccccc34)C2c2ccccn2)cs1 (configuration not stated)	inconclusive [inhibitor, partial curve]
O=C(C1CCN(C2CCN(Cc3ccc4c(c3)CCO4)CC2)CC1)N1CCCC1	inactive
COc1ccc(CCNC(=O)COC(=O)CSc2ccc([N+](=O)[O-])cc2)cc1OC	inconclusive [inhibitor, single point]
CCCN1C2CCCC1CC(NC(=O)Nc1cccc(C(C)=O)c1)C2 (configuration not stated)	inconclusive [inhibitor, partial curve, poor fit]
O=C1CN(C(=O)c2ccco2)C(c2ccccc2)c2cc(Cl)ccc2N1 (configuration not stated)	inconclusive [inhibitor, partial curve]
CC1=CC(C)(C)n2c(O)c(N=NC(N)=S)c3cc(C)cc1c32	inconclusive [inhibitor, single point]
Cc1cc2cc(CCNS(=O)(=O)c3ccc(F)cc3)c(=O)[nH]c2cc1C	inconclusive [inhibitor, single point]
Cc1cc(C)c(CNC(=O)c2cc(C3CC3)nc3c2cnn3C(C)C)c(=O)[nH]1	inconclusive [inhibitor, single point]
O=C(c1ccco1)N1CCN(c2ncnc3c(-c4ccccc4)nsc23)CC1	inactive
COc1ccc(CCN2C(=O)CS/C2=N\NC(=O)c2cccs2)cc1OC	inactive
COc1cccc(NC(=O)c2oc3ccc(S(=O)(=O)N4CCOCC4)cc3c2C)c1	inconclusive [inhibitor, partial curve, poor fit]
COc1ccc(C(=O)N/C(=C\c2cn(C)c3ccccc23)C(=O)N2CCN(C)CC2)cc1	inconclusive [inhibitor, single point]
CN1CCN(c2cc(N3CCN(C(=O)c4ccco4)CC3)c3c4c(onc24)-c2ccccc2C3=O)CC1	inconclusive [inhibitor, full curve, poor fit]
CSCC[C@H](NC(=O)[C@@H]1CSC2c3ccccc3C(=O)N21)C(=O)NCc1ccco1 (some centres not stated)	inconclusive [inhibitor, partial curve, poor fit]
CN(C)c1ccc(CNC(=O)CCc2ccc(S(=O)(=O)N3CCCCCC3)cc2)cc1	active: 11.7 µM
Cc1occc1-c1nnc(SCC(=O)c2ccc(Cl)cc2)n1C	inactive
Cc1n[nH]c(C)c1CCCCOc1ccccc1	inactive
CCOc1ccc(S(=O)(=O)N2CCOCC2)cc1NC(=O)CSCC(=O)Nc1ccc(C)cc1	inconclusive [inhibitor, full curve, poor fit]

SMILES	Potency
CCn1ccnc1CN(C)Cc1cn(-c2cc(C)ccc2C)nc1-c1ccccc1	inconclusive [inhibitor, full curve, poor fit]
COc1ccccc1NS(=O)(=O)c1cc(NC(=O)Nc2ccccc2)ccc1N1CCCCC1	active: 2.62 µM
COc1ccc(C)cc1S(=O)(=O)N1CCCC(C(=O)N2CCN(c3ccccc3F)CC2)C1 (configuration not stated)	active: 10.4 µM
CCN(c1ccccc1)S(=O)(=O)c1c(C)noc1C	inconclusive [inhibitor, partial curve, poor fit]
Cc1cc(C)c(-c2csc(NC(=O)C3=NN(c4ccccc4)C(=O)CC3)n2)c(C)c1	inconclusive [inhibitor, single point]
CC1=CC(C)C(C[N+]2(C)CCCCC2)C(C)C1 (configuration not stated)	inconclusive [inhibitor, partial curve]
Cc1cccc(N=C2Sc3nc4c(C)c(C)ccc4cc3CN2CCN2CCOCC2)c1	active: 11.7 µM
[O-]/C(=C(\C(=S)Nc1ccc(SC(F)F)cc1)[n+]1cccc(CO)c1)c1ccc(Cl)s1	inactive
Cc1cc(Cl)c2oc(C(=O)N(C)CC3CCOCC3)c(C)c2c1	inactive
N#Cc1ccc(/C=N/NC(=O)CCc2ccc(S(=O)(=O)N3CCOCC3)cc2)cc1	inconclusive [inhibitor, partial curve]
COc1ccc(CCN2C(=O)CC(Nc3ccc(N4CCOCC4)cc3)C2=O)cc1OC (configuration not stated)	inconclusive [inhibitor, partial curve, poor fit]
COc1ccc(C(=O)NCCNc2ccc([N+](=O)[O-])cc2)cc1OC	inactive
CC(=O)Nc1ccc(C2=NN(C)C(=NCc3ccccc3)SC2)cc1	inconclusive [inhibitor, single point]
CN1CCc2c(sc(NC(=O)c3ccc(S(=O)(=O)N4CCCC4)cc3)c2C(N)=O)C1	inconclusive [inhibitor, single point]
O=C(C/C=N/OCc1ccc(Cl)cc1Cl)c1ccccc1	inconclusive [inhibitor, single point]
N=c1c(C(=O)NC2CCCCC2)cc2c(=O)n3ccccc3nc2n1Cc1ccc(F)cc1	active: 2.08 µM
CCOc1cc(N2CCOCC2)c(OCC)cc1NC(=O)c1ccc2ccccc2n1	active: 13.1 µM
Cc1nnc2n(-c3ccc(Cl)cc3)c(=O)c3c4c(sc3n12)CN(C)CC4	inactive
CC(CC(=O)N1CCN(c2ccccc2)CC1)c1ccccc1 (configuration not stated)	inactive
O=C1CC(C(=O)N2CCN(c3ccccn3)CC2)CN1Cc1ccccc1Cl (configuration not stated)	inconclusive [inhibitor, single point]
COc1ccc(-c2nc(CN3CCN(Cc4ccccc4)CC3)c(C)o2)cc1	inconclusive [inhibitor, single point]
